In the supplement of paper PMC4967469:
IC50 is the fitted dose that halves viability relative to control wells, and lower means more sensitive; fits outside the tested doses are given as limits. For AUC the same curve is integrated over the 256-fold range of doses and scaled to a fraction; values near 1 show little effect. Any top dose called inferred was derived from the fitted curves, not read from the paper.

These cell lines were tested with CCc1nc(-c2cccc(C)c2)c(-c2ccnc(NC(=O)c3ccccc3)c2)s1 [TAK-715] (assay: Viability of human cancer cell lines after 72 h of drug (GDSC screen)). Conditions: top dose inferred.
Experimental: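 Human cancer cell lines in 384-well plates, medium with 10% serum, drug for 72 h over a 256-fold dose range (nine 2-fold or five 4-fold steps up to the top dose). Adherent lines were fixed and stained with the nucleic acid dye Syto60, suspension lines read with resazurin; signal relative to control wells, capped at 0 and 100%. One two-parameter sigmoid per drug and line, fitted in a mixed model over all curves with the slope shared within a line.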
In the case of “JIMT-1 (breast, adherent, top dose 20 µM)”, the AUC is reported as 0.957 and the IC50 is reported as > 20 µM.
In the case of “JJN-3 (haematopoietic neoplasm, suspension, top dose 20 µM)”, the AUC is reported as 0.915 and the IC50 is reported as > 20 µM.
“JM1 (B-cell lymphoma, suspension, top dose 20 µM)” was tested, and the AUC was 0.91 and the IC50 was > 20 µM.
In the case of “JSC-1 (B-cell lymphoma, suspension, top dose 20 µM)”, the AUC is reported as 0.838 and the IC50 is reported as 13.3 µM.
In the case of “JURL-MK1 (chronic myeloid leukaemia, suspension, top dose 20 µM)”, the AUC is reported as 0.933 and the IC50 is reported as > 20 µM.
“JVM-2 (lymphoid neoplasm, suspension, top dose 20 µM)” was tested, and the AUC was 0.942 and the IC50 was > 20 µM.
With “JVM-3 (lymphoid neoplasm, suspension, top dose 20 µM)” the AUC was 0.947 and the IC50 was > 20 µM.
“JiyoyeP-2003 (Burkitt lymphoma, suspension, top dose 20 µM)” was tested, and the AUC was 0.957 and the IC50 was > 20 µM.
For K2 (melanoma, adherent, top dose 20 µM), the AUC was 0.959 and the IC50 was > 20 µM.
K5 (thyroid, adherent, top dose 20 µM) was tested, and the AUC was 0.988 and the IC50 was > 20 µM.
With “KALS-1 (glioma, adherent, top dose 20 µM)” the AUC was 0.962 and the IC50 was > 20 µM.
In the case of “KARPAS-45 (lymphoblastic leukaemia, suspension, top dose 20 µM)”, the AUC is reported as 0.664 and the IC50 is reported as 3.27 µM.
Cell Line “KARPAS-299 (anaplastic large cell lymphoma, suspension, top dose 20 µM)” has an AUC of 0.898 and an IC50 of 17.6 µM.
For “KARPAS-422 (B-cell lymphoma, suspension, top dose 20 µM)”, the AUC was 0.953 and the IC50 was > 20 µM.
With “KARPAS-620 (haematopoietic neoplasm, suspension, top dose 20 µM)” the AUC was 0.832 and the IC50 was 10.3 µM.
With “KASUMI-1 (acute myeloid leukaemia, suspension, top dose 20 µM)” the AUC was 0.718 and the IC50 was 5.19 µM.
In the case of “KCL-22 (chronic myeloid leukaemia, suspension, top dose 20 µM)”, the AUC is reported as 0.925 and the IC50 is reported as > 20 µM.
For “KE-37 (lymphoblastic leukaemia, suspension, top dose 20 µM)”, the AUC was 0.747 and the IC50 was 5.14 µM.
In the case of “KELLY (neuroblastoma, adherent, top dose 20 µM)”, the AUC is reported as 0.903 and the IC50 is reported as > 20 µM.
“KG-1 (acute myeloid leukaemia, suspension, top dose 20 µM)” was tested, and the AUC was 0.897 and the IC50 was > 20 µM.
In the case of KGN (ovary, adherent, top dose 20 µM), the AUC is reported as 0.98 and the IC50 is reported as > 20 µM.
In the case of “KINGS-1 (glioma, adherent, top dose 20 µM)”, the AUC is reported as 0.975 and the IC50 is reported as > 20 µM.
“KLE (endometrium, adherent, top dose 20 µM)” was tested, and the AUC was 0.84 and the IC50 was > 20 µM.
For “KM12 (large intestine, adherent, top dose 20 µM)”, the AUC was 0.923 and the IC50 was > 20 µM.
In the case of “KM-H2 (Hodgkin lymphoma, suspension, top dose 20 µM)”, the AUC is reported as 0.93 and the IC50 is reported as > 20 µM.
With “KMH-2 (thyroid, adherent, top dose 20 µM)” the AUC was 0.956 and the IC50 was > 20 µM.
With “KMOE-2 (acute myeloid leukaemia, suspension, top dose 20 µM)” the AUC was 0.9 and the IC50 was > 20 µM.
For “KMRC-1 (kidney, adherent, top dose 20 µM)”, the AUC was 0.978 and the IC50 was > 20 µM.
With “KMRC-20 (kidney, adherent, top dose 20 µM)” the AUC was 0.982 and the IC50 was > 20 µM.
In the case of “KMS-11 (myeloma, suspension, top dose 20 µM)”, the AUC is reported as 0.945 and the IC50 is reported as > 20 µM.
With “KMS-12-BM (myeloma, suspension, top dose 20 µM)” the AUC was 0.892 and the IC50 was 16.3 µM.
With “KNS-42 (glioma, adherent, top dose 20 µM)” the AUC was 0.981 and the IC50 was > 20 µM.
For “KNS-81-FD (glioma, adherent, top dose 20 µM)”, the AUC was 0.956 and the IC50 was > 20 µM.
With “KON (head and neck, adherent, top dose 20 µM)” the AUC was 0.968 and the IC50 was > 20 µM.
With “KOPN-8 (B-cell leukaemia, suspension, top dose 20 µM)” the AUC was 0.894 and the IC50 was 18 µM.
“KP-1N (pancreas, adherent, top dose 10.24 µM)” was tested, and the AUC was 0.948 and the IC50 was > 10.2 µM.
“KP-2 (pancreas, adherent, top dose 20 µM)” was tested, and the AUC was 0.959 and the IC50 was > 20 µM.
With “KP-3 (pancreas, adherent, top dose 20 µM)” the AUC was 0.939 and the IC50 was > 20 µM.
“KP-4 (pancreas, adherent, top dose 20 µM)” was tested, and the AUC was 0.94 and the IC50 was > 20 µM.
With “KP-N-YN (neuroblastoma, adherent, top dose 20 µM)” the AUC was 0.95 and the IC50 was > 20 µM.
In the case of “KP-N-YS (neuroblastoma, adherent, top dose 20 µM)”, the AUC is reported as 0.881 and the IC50 is reported as > 20 µM.
In the case of KS-1 (glioma, adherent, top dose 20 µM), the AUC is reported as 0.956 and the IC50 is reported as > 20 µM.
In the case of “KU812 (chronic myeloid leukaemia, suspension, top dose 20 µM)”, the AUC is reported as 0.873 and the IC50 is reported as 16.4 µM.
For “KU-19-19 (bladder, adherent, top dose 20 µM)”, the AUC was 0.977 and the IC50 was > 20 µM.
In the case of “KURAMOCHI (ovary, adherent, top dose 20 µM)”, the AUC is reported as 0.983 and the IC50 is reported as > 20 µM.
In the case of “KY821 (leukaemia, suspension, top dose 20 µM)”, the AUC is reported as 0.952 and the IC50 is reported as > 20 µM.
“KYAE-1 (oesophagus, suspension, top dose 20 µM)” was tested, and the AUC was 0.811 and the IC50 was 12 µM.
With “KYM-1 (rhabdomyosarcoma, adherent, top dose 20 µM)” the AUC was 0.989 and the IC50 was > 20 µM.
“KYSE-50 (oesophagus, adherent, top dose 20 µM)” was tested, and the AUC was 0.986 and the IC50 was > 20 µM.
In the case of “KYSE-70 (oesophagus, adherent, top dose 20 µM)”, the AUC is reported as 0.941 and the IC50 is reported as > 20 µM.
“KYSE-140 (oesophagus, adherent, top dose 20 µM)” gave an AUC of 0.823 and an IC50 of 13.8 µM.
In the case of “KYSE-150 (oesophagus, adherent, top dose 20 µM)”, the AUC is reported as 0.959 and the IC50 is reported as > 20 µM.
With “KYSE-180 (oesophagus, adherent, top dose 20 µM)” the AUC was 0.925 and the IC50 was > 20 µM.
In the case of “KYSE-220 (oesophagus, adherent, top dose 20 µM)”, the AUC is reported as 0.924 and the IC50 is reported as > 20 µM.
With “KYSE-270 (oesophagus, adherent, top dose 20 µM)” the AUC was 0.944 and the IC50 was > 20 µM.
In the case of “KYSE-410 (oesophagus, adherent, top dose 20 µM)”, the AUC is reported as 0.951 and the IC50 is reported as > 20 µM.
Work on “KYSE-450 (oesophagus, adherent, top dose 20 µM)” yielded an AUC of 0.867 and an IC50 of 16.4 µM.
In the case of “KYSE-510 (oesophagus, adherent, top dose 20 µM)”, the AUC is reported as 0.97 and the IC50 is reported as > 20 µM.
For “KYSE-520 (oesophagus, adherent, top dose 20 µM)”, the AUC was 0.981 and the IC50 was > 20 µM.
With “L-363 (myeloma, suspension, top dose 20 µM)” the AUC was 0.898 and the IC50 was 19.1 µM.
In the case of “L-428 (Hodgkin lymphoma, suspension, top dose 20 µM)”, the AUC is reported as 0.954 and the IC50 is reported as > 20 µM.
For “L-540 (Hodgkin lymphoma, suspension, top dose 20 µM)”, the AUC was 0.901 and the IC50 was > 20 µM.
With “L-1236 (Hodgkin lymphoma, suspension, top dose 20 µM)” the AUC was 0.979 and the IC50 was > 20 µM.
“LAMA-84 (chronic myeloid leukaemia, suspension, top dose 20 µM)” was tested, and the AUC was 0.865 and the IC50 was 18.1 µM.
For “LAN-6 (neuroblastoma, adherent, top dose 20 µM)”, the AUC was 0.95 and the IC50 was > 20 µM.
For “LB373-MEL-D (melanoma, adherent, top dose 20 µM)”, the AUC was 0.969 and the IC50 was > 20 µM.
In the case of “LB647-SCLC (small cell lung carcinoma, semi-adherent, top dose 20 µM)”, the AUC is reported as 0.978 and the IC50 is reported as > 20 µM.
With “LB771-HNC (head and neck, adherent, top dose 20 µM)” the AUC was 0.92 and the IC50 was > 20 µM.
For “LB831-BLC (bladder, adherent, top dose 20 µM)”, the AUC was 0.983 and the IC50 was > 20 µM.
For “LB996-RCC (kidney, adherent, top dose 20 µM)”, the AUC was 0.957 and the IC50 was > 20 µM.
With “LB1047-RCC (kidney, adherent, top dose 20 µM)” the AUC was 0.888 and the IC50 was > 20 µM.
For “LB2241-RCC (kidney, adherent, top dose 20 µM)”, the AUC was 0.955 and the IC50 was > 20 µM.
With “LB2518-MEL (melanoma, adherent, top dose 20 µM)” the AUC was 0.938 and the IC50 was > 20 µM.
For “LC4-1 (lymphoblastic leukaemia, suspension, top dose 20 µM)”, the AUC was 0.862 and the IC50 was > 20 µM.
“LC-1-sq (lung squamous cell carcinoma, adherent, top dose 20 µM)” was tested, and the AUC was 0.919 and the IC50 was > 20 µM.
In the case of “LC-2-ad (lung adenocarcinoma, adherent, top dose 20 µM)”, the AUC is reported as 0.944 and the IC50 is reported as > 20 µM.
“LCLC-97TM1 (large cell lung carcinoma, adherent, top dose 20 µM)” was tested, and the AUC was 0.93 and the IC50 was > 20 µM.
For “LCLC-103H (large cell lung carcinoma, adherent, top dose 20 µM)”, the AUC was 0.968 and the IC50 was > 20 µM.
For “LK-2 (lung squamous cell carcinoma, adherent, top dose 20 µM)”, the AUC was 0.963 and the IC50 was > 20 µM.
“LN-18 (glioma, adherent, top dose 20 µM)” was tested, and the AUC was 0.992 and the IC50 was > 20 µM.
